Measured values from PMC11995724, “Antibiotic target discovery by integrated phenotypic and activity-based profiling of electrophilic fragments” (Cell chemical biology, 2025).
Out of some 3,200 compounds screened, about 110 (3.4%) showed an effect of 50% or more. Some of the results follow.

Each compound was assayed on T1, V. cholerae SAD30. Conditions: relative growth, OD600, LB; 25 µM; inhibitor.
T1 construct: SAD30
Design: species or system S. aureus MSSA476 (TSB) or V. cholerae SAD30 (LB); 384-well bacterial growth screen at 25 uM, OD600 relative to DMSO control

| Compound | % of control remaining [%] |
| --- | --- |
| CC(Cl)C(=O)NC(=O)Nc1ccc2c(c1)OCCO2 (stereo not shown) [5-D08, 3-(2-chloropropanoyl)-1-(2,3-dihydro-1,4-benzodioxin-6-yl)urea] | 90.4487 |
| O=C(CCl)Nc1ccc(OC(F)F)c(Cl)c1 [4-F14, 2-chloro-N-[3-chloro-4-(difluoromethoxy)phenyl]acetamide] | 82.9847 |
| C=CC(=O)NCCC(=O)N1CCCN(C(=O)c2ccccc2F)CC1 [2-D20, N-{3-[4-(2-fluorobenzoyl)-1,4-diazepan-1-yl]-3-oxopropyl}prop-2-enamide] | 96.9893 |
| CC1CC(NC(=O)CCl)C(=O)N1c1cnn(C)c1 (stereo not shown) [5-O08, 2-chloro-N-[5-methyl-1-(1-methyl-1H-pyrazol-4-yl)-2-oxopyrrolidin-3-yl]acetamide] | 97.846 |
| COc1c(C)cnc(CN2CCC(N(C)C(=O)C(C)Cl)CC2)c1C (stereo not shown) [6-A04, 2-chloro-N-{1-[(4-methoxy-3,5-dimethylpyridin-2-yl)methyl]piperidin-4-yl}-N-methylpropanamide] | 102.076 |
| N#CC(=Cc1ccccc1)C(=O)Nc1ccccc1F [8-C13, 2-cyano-N-(2-fluorophenyl)-3-phenylprop-2-enamide] | 77.1584 |
| Cc1cc(C=C(C#N)C(=O)Nc2cnn(C)c2)c(C)n1C1CCCCC1 [9-B17, 2-cyano-3-(1-cyclohexyl-2,5-dimethyl-1H-pyrrol-3-yl)-N-(1-methyl-1H-pyrazol-4-yl)prop-2-enamide] | 58.1237 |
| CCN(C(=O)CCl)c1c(N)n(Cc2ccccc2)c(=O)[nH]c1=O [4-P10, N-(6-amino-1-benzyl-2,4-dioxo-1,2,3,4-tetrahydropyrimidin-5-yl)-2-chloro-N-ethylacetamide] | 116.8 |
| CC(Cl)C(=O)NCC1CC(=O)N(c2ccccc2)C1 (stereo not shown) [7-O20, 2-chloro-N-[(5-oxo-1-phenylpyrrolidin-3-yl)methyl]propanamide] | 80.7533 |
| C=CC(=O)NCc1ccno1 [1-O07, N-[(1,2-oxazol-5-yl)methyl]prop-2-enamide] | 86.846 |
| CC(C)(C)C1CCc2c(sc(NC(=O)CCl)c2C#N)C1 (stereo not shown) [5-E17, N-(6-tert-butyl-3-cyano-4,5,6,7-tetrahydro-1-benzothiophen-2-yl)-2-chloroacetamide] | 100.536 |
| Cc1cccc(C=C(C#N)C(=O)NC(C)c2ccccc2)c1 (stereo not shown) [8-F18, 2-cyano-3-(3-methylphenyl)-N-(1-phenylethyl)prop-2-enamide] | 66.8253 |
| Cc1ccc(NC(=O)C2(CNC(=O)C(C)Cl)CCCC2)cc1C (stereo not shown) [7-J13, 1-[(2-chloropropanamido)methyl]-N-(3,4-dimethylphenyl)cyclopentane-1-carboxamide] | 74.8059 |
| CC(C1CC1)N(CC(F)(F)F)C(=O)CCl (stereo not shown) [5-P08, 2-chloro-N-(1-cyclopropylethyl)-N-(2,2,2-trifluoroethyl)acetamide] | 105.579 |
| CC(Cl)C(=O)Nc1ccccc1Cl (stereo not shown) [4-D11, 2-chloro-N-(2-chlorophenyl)propanamide] | 95.579 |
| O=C(CCl)N(c1ccccc1)C1CCCCC1 [4-L18, 2-chloro-N-cyclohexyl-N-phenylacetamide] | 111.969 |
| COc1ccc(C=C(C#N)C(=O)Nc2cccc(Cl)c2)cc1 [8-I09, N-(3-chlorophenyl)-2-cyano-3-(4-methoxyphenyl)prop-2-enamide] | 74.3032 |
| O=C(CCl)N1CCCSc2ccccc21 [4-E16, 2-chloro-1-(2,3,4,5-tetrahydro-1,5-benzothiazepin-5-yl)ethan-1-one] | 94.5439 |
| C=CC(=O)N(C)Cc1cccnc1 [3-L11, N-methyl-N-[(pyridin-3-yl)methyl]prop-2-enamide] | 90.5017 |
| Cc1cc(C(=O)CCl)c(C)n1-c1ccc(C(C)C)cc1 [10-J12, 2-chloro-1-{2,5-dimethyl-1-[4-(propan-2-yl)phenyl]-1H-pyrrol-3-yl}ethan-1-one] | 88.5252 |
| Cc1noc(C)c1CC(=O)N1CCN(C(=O)C(C)Cl)CC1 (stereo not shown) [6-F11, 2-chloro-1-{4-[2-(3,5-dimethyl-1,2-oxazol-4-yl)acetyl]piperazin-1-yl}propan-1-one] | 90.7005 |
| CC(NC(=O)CCl)c1ccc2ncsc2c1 (stereo not shown) [6-A18, N-[1-(1,3-benzothiazol-6-yl)ethyl]-2-chloroacetamide] | 101.924 |
| CCN(CC)C(=O)/C(C#N)=C/c1cc(O)c(O)c([N+](=O)[O-])c1 [9-B04, (2E)-2-cyano-3-(3,4-dihydroxy-5-nitrophenyl)-N,N-diethylprop-2-enamide] | 89.123 |

| Compound | % of control remaining [%] |
| --- | --- |
| O=C(CCl)NC(c1ccccc1)c1ccco1 (stereo not shown) [4-A08, 2-chloro-N-[(furan-2-yl)(phenyl)methyl]acetamide] | 109.726 |
| CC(C)Oc1ccccc1C=C(C#N)C(=O)Nc1ccccc1Cl [9-N20, N-(2-chlorophenyl)-2-cyano-3-[2-(propan-2-yloxy)phenyl]prop-2-enamide] | 88.3073 |
| COC(=O)c1ccccc1NC(=O)CCl [5-B12, methyl 2-(2-chloroacetamido)benzoate] | 89.6081 |
| CC(Cl)C(=O)N1CCNC(=O)C1c1cccs1 (stereo not shown) [6-J17, 4-(2-chloropropanoyl)-3-(thiophen-2-yl)piperazin-2-one] | 93.8857 |
| CC(Cl)C(=O)NC1(c2ccccc2)CCOCC1 (stereo not shown) [7-A11, 2-chloro-N-(4-phenyloxan-4-yl)propanamide] | 90.9301 |
| O=C(CCl)NCc1[nH]nc2c1CCCC2 [6-E04, 2-chloro-N-[(4,5,6,7-tetrahydro-2H-indazol-3-yl)methyl]acetamide] | 99.1942 |
| COc1cccc([C@H]2C[C@H](N(C)C(=O)C(C)Cl)C2)c1 (stereo partly shown) [6-B17, 2-chloro-N-methyl-N-[(1r,3r)-3-(3-methoxyphenyl)cyclobutyl]propanamide] | 89.6388 |
| CC(Cl)C(=O)NC1COc2ccc(F)cc21 (stereo not shown) [7-A17, 2-chloro-N-(5-fluoro-2,3-dihydro-1-benzofuran-3-yl)propanamide] | 83.2645 |
| CC(=O)N1CCc2cc(C(=O)C(C)Cl)ccc21 (stereo not shown) [10-L22, 1-(1-acetyl-2,3-dihydro-1H-indol-5-yl)-2-chloropropan-1-one] | 100.214 |
| COc1cc(NC(=O)CCl)cc(OC)c1OC [4-N12, 2-chloro-N-(3,4,5-trimethoxyphenyl)acetamide] | 106.276 |
| COc1ccc(NC(=O)C(C)Cl)cc1OC (stereo not shown) [6-F12, 2-chloro-N-(3,4-dimethoxyphenyl)propanamide] | 83.7236 |
| CC(C#N)Oc1ccc(C=C(C#N)C(=O)Nc2ccccc2Cl)cc1 (stereo not shown) [9-E05, N-(2-chlorophenyl)-2-cyano-3-[4-(1-cyanoethoxy)phenyl]prop-2-enamide] | 89.259 |
| COc1ccc(-c2csc(NC(=O)CCl)n2)c(O)c1 [4-A11, 2-chloro-N-[4-(2-hydroxy-4-methoxyphenyl)-1,3-thiazol-2-yl]acetamide] | 102.653 |
| Cc1csc(CN2CCN(C(=O)C(C)Cl)CC2)n1 (stereo not shown) [5-H17, 2-chloro-1-{4-[(4-methyl-1,3-thiazol-2-yl)methyl]piperazin-1-yl}propan-1-one] | 91.2893 |
| COc1ccc(C2CCCN2C(=O)CCl)c(OC)c1 (stereo not shown) [4-P22, 2-chloro-1-[2-(2,4-dimethoxyphenyl)pyrrolidin-1-yl]ethan-1-one] | 115.247 |
| C=CC(=O)NCC1CCS(=O)(=O)C1(C)C (stereo not shown) [1-O16, N-[(2,2-dimethyl-1,1-dioxo-1lambda6-thiolan-3-yl)methyl]prop-2-enamide] | 88.7892 |
| C=CC(=O)NC(c1ccccc1)c1nc(C)no1 (stereo not shown) [1-B13, N-[(3-methyl-1,2,4-oxadiazol-5-yl)(phenyl)methyl]prop-2-enamide] | 90.1345 |
| C=CC(=O)NC1CCC(S(C)(=O)=O)C1 (stereo not shown) [3-F18, N-(3-methanesulfonylcyclopentyl)prop-2-enamide] | 90.5017 |
| CCC(C)(C)C1CCc2c(sc(NC(=O)CCl)c2C#N)C1 (stereo not shown) [5-A05, 2-chloro-N-[3-cyano-6-(2-methylbutan-2-yl)-4,5,6,7-tetrahydro-1-benzothiophen-2-yl]acetamide] | 109.446 |
| C=CC(=O)NCc1cc(-c2ccccc2OC)no1 [2-C18, N-{[3-(2-methoxyphenyl)-1,2-oxazol-5-yl]methyl}prop-2-enamide] | 94.0558 |
| Cc1c(C=C(C#N)C(=O)NCC2(c3ccccc3)CC2)cc(C#N)n1C [8-E22, 2-cyano-3-(5-cyano-1,2-dimethyl-1H-pyrrol-3-yl)-N-[(1-phenylcyclopropyl)methyl]prop-2-enamide] | 81.1013 |
| CCc1ccc(NC(=O)CCl)cc1 [4-P03, 2-chloro-N-(4-ethylphenyl)acetamide] | 124.218 |
| CC(Cl)C(=O)N1CCOCC1c1ncnn1Cc1ccccc1 (stereo not shown) [7-C08, 1-[3-(1-benzyl-1H-1,2,4-triazol-5-yl)morpholin-4-yl]-2-chloropropan-1-one] | 78.5065 |
